In the supplement of paper PMC4967469:
By IC50 is meant the dose at which the fit gives 50% viability; a fit beyond the top or the lowest dose is shown as a bound at that dose. AUC sums up the same curve from the lowest dose to the 256-fold higher top dose; it is 1 without any effect and falls as sensitivity rises. For part of these data: The top dose, if marked as inferred, is not printed in the source and was worked back from the curve model.

Key:
Assay in all cases: Viability of human cancer cell lines after 72 h of drug (GDSC screen)
Z-LLNle-CHO = compound: CCCC[C@@H](C=O)NC(=O)[C@H](CC(C)C)NC(=O)[C@H](CC(C)C)NC(=O)OCc1ccccc1 [Z-LLNle-CHO]; conditions: top dose 2.56 µM; top dose inferred
Method: (§1)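 Human cancer cell lines in 384-well plates, medium with 10% serum, drug for 72 h over a 256-fold dose range (nine 2-fold or five 4-fold steps up to the top dose). Adherent lines were fixed and stained with the nucleic acid dye Syto60, suspension lines read with resazurin; signal relative to control wells, capped at 0 and 100%. One two-parameter sigmoid per drug and line, fitted in a mixed model over all curves with the slope shared within a line.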

XL-880 = compound: COc1cc2c(Oc3ccc(NC(=O)C4(C(=O)Nc5ccc(F)cc5)CC4)cc3F)ccnc2cc1OCCCN1CCOCC1 [XL-880]; conditions: top dose 5.12 µM; top dose inferred
Method: as §1

Temozolomide = compound: Cn1nnc2c(C(N)=O)ncn2c1=O [Temozolomide]; conditions: top dose 30 µM
Method: as §1

Tubastatin A = compound: CN1CCc2c(c3ccccc3n2Cc2ccc(C(=O)NO)cc2)C1 [Tubastatin A]; conditions: top dose 20 µM
Method: as §1

CI-1040 = compound: O=C(NOCC1CC1)c1ccc(F)c(F)c1Nc1ccc(I)cc1Cl [CI-1040]; conditions: top dose 10 µM; top dose inferred
Method: as §1

IPA-3 = compound: Oc1ccc2ccccc2c1SSc1c(O)ccc2ccccc12 [IPA-3]; conditions: top dose 32 µM; top dose inferred
Method: as §1

JW-7-52-1 = compound: CCC(=O)N1CCN(c2ccc(-n3c(=O)ccc4cnc5ccc(-c6cnc7ccccc7c6)cc5c43)cc2C(F)(F)F)CC1 [JW-7-52-1]; conditions: top dose 1.2 µM; top dose inferred
Method: as §1

ZG-10 = compound: CN(C)C/C=C/C(=O)Nc1ccc(C(=O)Nc2cccc(Nc3nccc(-c4cccnc4)n3)c2)cc1 [ZG-10]; conditions: top dose 10 µM; top dose inferred
Method: as §1

Rapamycin = compound: CO[C@H]1C[C@@H]2CC[C@@H](C)[C@@](O)(O2)C(=O)C(=O)N2CCCC[C@H]2C(=O)O[C@H]([C@H](C)C[C@@H]2CC[C@@H](O)[C@H](OC)C2)CC(=O)[C@H](C)/C=C(\C)[C@@H](O)[C@@H](OC)C(=O)[C@H](C)C[C@H](C)/C=C/C=C/C=C/1C [Rapamycin]; conditions: top dose 0.1 µM; top dose inferred
Method: as §1

Row | Cell Line | AUC (Z-LLNle-CHO) | IC50 (Z-LLNle-CHO) [nM] | AUC (XL-880) | IC50 (XL-880) [nM] | AUC (Temozolomide) | IC50 (Temozolomide) [nM] | AUC (Tubastatin A) | IC50 (Tubastatin A) [nM] | AUC (CI-1040) | IC50 (CI-1040) [nM] | AUC (IPA-3) | IC50 (IPA-3) [nM] | AUC (JW-7-52-1) | IC50 (JW-7-52-1) [nM] | AUC (ZG-10) | IC50 (ZG-10) [nM] | AUC (Rapamycin) | IC50 (Rapamycin) [nM]
1 | CGTH-W-1 (thyroid, adherent) | 0.939 | > 2560 | 0.559 | 463 | 0.985 | > 30000 | 0.985 | > 20000 | 0.854 | 7850 | 0.986 | > 32000 | 0.59 | 132 | 0.658 | 1710 | 0.929 | > 100
2 | C2BBe1 (large intestine, adherent) | 0.812 | 1600 | 0.831 | 3880 | 0.984 | > 30000 | 0.976 | > 20000 | 0.51 | 666 | 0.804 | 18600 | 0.699 | 296 | 0.964 | > 10000 | 0.786 | 49.5
3 | ES1 (Ewing sarcoma, adherent) | 0.902 | > 2560 | 0.398 | 169 | 0.978 | > 30000 | 0.804 | 9790 | 0.812 | 5230 | 0.734 | 9200 | 0.388 | 37.1 | 0.579 | 1030 | 0.92 | > 100
4 | CL-11 (large intestine, adherent) | 0.929 | > 2560 | 0.822 | 3500 | 0.986 | > 30000 | 0.987 | > 20000 | 0.511 | 670 | 0.98 | > 32000 | 0.922 | > 1200 | 0.986 | > 10000 | 0.979 | > 100
5 | ALL-PO (lymphoblastic leukaemia, suspension) | 0.759 | 939 | 0.119 | < 20 | 0.974 | > 30000 | 0.65 | 3350 | 0.51 | 666 | 0.771 | 13000 | 0.452 | 54.9 | 0.577 | 1030 | 0.911 | > 100
6 | NCI-H1648 (lung adenocarcinoma, adherent) | 0.863 | 2440 | 0.712 | 1330 | 0.984 | > 30000 | 0.945 | > 20000 | 0.902 | > 10000 | 0.979 | > 32000 | 0.406 | 40.8 | 0.776 | 4230 | 0.85 | 82.9
7 | MC-CAR (haematopoietic neoplasm, suspension) | 0.748 | 750 | 0.489 | 300 | 0.976 | > 30000 | 0.861 | 14000 | 0.904 | > 10000 | 0.667 | 5510 | 0.769 | 406 | 0.63 | 1370 | 0.981 | > 100
8 | KINGS-1 (glioma, adherent) | 0.699 | 728 | 0.467 | 252 | 0.967 | > 30000 | 0.966 | > 20000 | 0.923 | > 10000 | 0.979 | > 32000 | 0.458 | 55.2 | 0.805 | 7490 | 0.623 | 15.5
9 | A253 (head and neck, adherent) | 0.757 | 860 | 0.845 | 3540 | 0.951 | > 30000 | 0.987 | > 20000 | 0.934 | > 10000 | 0.801 | 15100 | 0.821 | 670 | 0.837 | 6450 | 0.988 | > 100
10 | LXF-289 (lung adenocarcinoma, adherent) | 0.75 | 823 | 0.596 | 586 | 0.975 | > 30000 | 0.978 | > 20000 | 0.818 | 5500 | 0.987 | > 32000 | 0.351 | 29.3 | 0.726 | 2700 | 0.909 | > 100
11 | HCC2157 (breast, suspension) | 0.885 | > 2560 | 0.987 | > 5120 | 0.96 | > 30000 | 0.955 | > 20000 | 0.931 | > 10000 | 0.934 | > 32000 | 0.665 | 221 | 0.618 | 1350 | 0.89 | > 100
12 | LU-65 (large cell lung carcinoma, suspension) | 0.938 | > 2560 | 0.624 | 749 | 0.981 | > 30000 | 0.939 | > 20000 | 0.979 | > 10000 | 0.973 | > 32000 | 0.839 | 1040 | 0.982 | > 10000 | 0.963 | > 100
13 | Daudi (Burkitt lymphoma, suspension) | 0.709 | 567 | 0.427 | 208 | 0.99 | > 30000 | 0.813 | 9100 | 0.957 | > 10000 | 0.693 | 6410 | 0.413 | 44.9 | 0.721 | 2390 | 0.226 | 1.14
14 | NCI-H226 (lung squamous cell carcinoma, adherent) | 0.857 | 2260 | 0.51 | 342 | 0.986 | > 30000 | 0.957 | > 20000 | 0.88 | > 10000 | 0.771 | 12900 | 0.937 | > 1200 | 0.717 | 2660 | 0.983 | > 100
15 | NALM-6 (B-cell leukaemia, suspension) | 0.766 | 800 | 0.485 | 294 | 0.98 | > 30000 | 0.733 | 5040 | 0.897 | 8820 | 0.469 | 1670 | 0.24 | 15.7 | 0.647 | 1480 | 0.928 | > 100
